From publication PMC8243516, “Inhibition of lysosomal phospholipase A2 predicts drug-induced phospholipidosis” (Journal of Lipid Research, 2021)
Like-named read-outs stand apart in the source and are kept apart here. Blank lines part the entries; values can stand above or below the molecule they belong to.

Tests used:
[1] = target: T1, recombinant mouse LPLA2 (PLA2G15) (Mus musculus, UniProt Q8VEB4); experiment: Transacylase activity of LPLA2 (1-O-acyl-N-acetylsphingosine synthase, cell-free liposome assay); type: biochemical
T1 construct: purchased Proteos Inc. (Kalamazoo, MI)
T1 sequence (Q8VEB4 34-412): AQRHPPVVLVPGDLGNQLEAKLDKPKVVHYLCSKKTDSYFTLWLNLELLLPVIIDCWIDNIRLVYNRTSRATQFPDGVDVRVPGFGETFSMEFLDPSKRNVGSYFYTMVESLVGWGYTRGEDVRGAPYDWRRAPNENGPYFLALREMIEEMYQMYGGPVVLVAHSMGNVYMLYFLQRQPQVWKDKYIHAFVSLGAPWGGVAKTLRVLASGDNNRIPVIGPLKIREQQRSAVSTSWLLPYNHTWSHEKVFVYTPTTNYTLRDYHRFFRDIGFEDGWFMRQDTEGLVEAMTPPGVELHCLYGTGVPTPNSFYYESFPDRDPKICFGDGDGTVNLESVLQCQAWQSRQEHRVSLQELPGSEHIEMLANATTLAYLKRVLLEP

LPLA2 = target: T2, LPLA2 (Mus musculus, UniProt Q8VEB4); experiment: LPLA2 thermal stability measurement (SYPRO Orange Tm); type: binding
T2 construct: purchased Proteos Inc. (Kalamazoo, MI)
T2 sequence (Q8VEB4 34-412): T1 sequence (Q8VEB4 34-412)

MDCK cells = experiment: Screening phospholipidosis assay (LipidTOX Red / NucBlue Live fluorescence ratio); conditions: LipidTOX Red to NucBlue Live fluorescence ratio, 24 h
[2] = 1-O-acyl N-acetylsphingosine synthase activity, pH 4.5, DOPC/sulfatide liposomes, read-out: LPLA2 IC50
[3] = LPLA2 dependent 1-O-acyl N-acetylsphingosine synthase activity, read-out: LPLA2 IC50

Structure (SMILES): CN(C)C(=O)C(CCN1CCC(O)(c2ccc(Cl)cc2)CC1)(c1ccccc1)c1ccccc1 [Loperamide, 4-[4-(4-chlorophenyl)-4-hydroxypiperidin-1-yl]-N,N-dimethyl-2,2-diphenylbutanamide]
IC50 ([1]; LPLA2 IC50): 149 µM

Structure (SMILES): Clc1ccc2c(c1)CCc1cccnc1C2=C1CCNCC1 [Desloratadine]
(ΔTm)c-(ΔTm)d, difference in melting temperature of LPLA2 alone or in the presence of drug (LPLA2): 0.30 ± 0.1 °C

Structure (SMILES): CN1CCN(C2=Nc3cc(Cl)ccc3Nc3ccccc32)CC1 [Clozapine, 8-Chloro-11-(4-methyl-1-piperazinyl)-5H-dibenzo[b,e][1,4]-diazepine]
IC50 [1, 2]: 10.8 µM

Structure (SMILES): CN1[C@@H]2CC[C@H]1C[C@@H](OC(c1ccccc1)c1ccccc1)C2 [Benztropine]
IC50 [1, 3]: 59 µM

Structure (SMILES): CCN(CC)CCOc1ccc(C(=C(Cl)c2ccccc2)c2ccccc2)cc1 [Clomifene]
IC50 [1, 3]: 12.9 µM

Structure (SMILES): CC(C)NCC(O)COc1cccc2ccccc12 (centres unmarked) [Propranolol, 1-(naphthalen-1-yloxy)-3-[(propan-2-yl)amino]propan-2-ol]
IC50 [1, 2]: 49.9 µM

Structure (SMILES): CNCCCC12CCC(c3ccccc31)c1ccccc12 [Maprotiline, methyl(3-{tetracyclo [6.6.2.0^2,^7.0^9,^14]hexadeca-2,4,6,9,11, 13-hexaen-1-yl}propyl)amine]
IC50 [1, 2]: 12 µM

Structure (SMILES): CN(C)CCN(Cc1cccs1)c1ccccn1 [Methapyrilene, N-[2-(dimethylamino)ethyl]-N-[(thiophen-2-yl)methyl]pyridin-2-amine]
(ΔTm)c-(ΔTm)d, difference in melting temperature of LPLA2 alone or in the presence of drug (LPLA2; N=3 ± SD): -0.48 ± 0.2 °C
LPLA2 inhibition (in words) ([1]; acyl transferase activity): no inhibitory activity

Structure (SMILES): C(=Cc1ccccc1)CN1CCN(C(c2ccccc2)c2ccccc2)CC1 [Cinnarizine, 1-(diphenylmethyl)-4-(3-phenylprop-2-en-1-yl) piperazine]
(ΔTm)c-(ΔTm)d, difference in melting temperature of LPLA2 alone or in the presence of drug (LPLA2; N=3 ± SD): 0.54 ± 0.9 °C
IC50 [1, 2]: 40.6 µM

Structure (SMILES): CN(C)CCOC(c1ccccc1)c1ccccc1 [Diphenhydramine]
IC50 [1, 2]: 270 µM

Structure (SMILES): Fc1ccc(C(c2ccc(F)cc2)N2CCN(C/C=C/c3ccccc3)CC2)cc1 [Flunarizine, 1-[bis(4-fluorophenyl)methyl]-4-[(2E)-3-phenylprop-2-en-1-yl]piperazine]
IC50 [1, 2]: 7.49 µM

Structure (SMILES): COc1ccc(CCN2CCC(Nc3nc4ccccc4n3Cc3ccc(F)cc3)CC2)cc1 [Astemizole, 1-(4-fluorobenzyl)-2-(1-[4-methoxyphenethyl]piperidin-4-yl)aminobenzimidazole]
IC50 [1, 2]: 8.19 µM

Second part, led by results:

(ΔTm)c-(ΔTm)d, difference in melting temperature of LPLA2 alone or in the presence of drug (LPLA2; N=3 ± SD): 0.16 ± 0.9 °C
IC50 [1, 2]: 13.2 µM
Structure (SMILES): CN1CCC[C@@H]1CCO[C@](C)(c1ccccc1)c1ccc(Cl)cc1 [Clemastine]

IC50 [1, 2]: 301 µM
Structure (SMILES): CN(C)CCC=C1c2ccccc2COc2ccccc21 [Doxepin, dimethyl(3-{9-oxatricyclo[9.4.0.0ˆ[1]]pentadeca-1(15),3,5,7,11,13-hexaen-2-ylidene}propyl)amine]

IC50 [1, 2]: 17 µM
Structure (SMILES): CN(C)CCCN1c2ccccc2CCc2ccc(Cl)cc21 [Clomipramine, (3-{14-chloro-2-azatricyclo[9.4.0.0^3,^8]pentadeca-1(11), 3,5,7,12,14-hexaen-2-yl}propyl)dimethylamine]

IC50 [1, 2]: 38 µM
Structure (SMILES): CSc1ccc2c(c1)N(CCC1CCCCN1C)c1ccccc1S2 (centres unmarked) [Thioridazine, 10-[2-(1-methylpiperidin-2-yl)ethyl]-2-(methylsulfanyl) -10H-phenothiazine]

IC50 [1, 3]: 42.4 µM
Structure (SMILES): CN1CCN(CCCN2c3ccccc3Sc3ccc(Cl)cc32)CC1 [Prochlorperazine]

(ΔTm)c-(ΔTm)d, difference in melting temperature of LPLA2 alone or in the presence of drug (LPLA2; N=3 ± SD): -0.38 ± 0.3 °C
IC50 [1, 3]: 259 µM
Structure (SMILES): Cc1ccccc1C(OCCN(C)C)c1ccccc1 (centres unmarked) [Orphenadrine]
Ratio (15 μM) (MDCK cells): 0.29
